Tested on: conditionally-immortalized mouse podocyte cell line
Test: Podocyte cytotoxicity assay (Cell Titer-Blue)
Conditions: 72 hours, three experiments
Description: Podocytes are polarized epithelial cells located on the glomerular basement membrane that contribute to the integrity of the filtration barrier. For the purposes of these experiments, they function as an indicator of renal toxicity. Following 72 hours of treatment with each compound concentrations ranging from 30 μM to 3 nM, podocyte viability was assessed by measuring residual metabolic activity (FIG. 30). […] Of the 15 analogs tested, only two, TSA and apicidin, caused sufficient cytotoxicity to allow the calculation of an E50 value. […] Treatment with PTBA or each of 12 structural analogs never decreased podocyte viability below the 50% threshold, even when tested at 30 μM (FIG. 30). […]
The isolation and characterization of conditionally-immortalized mouse podocyte cell line have been previously described (Mundel, P. et al. Rearrangements of the cytoskeleton and cell contacts induce process formation during differentiation of conditionally immortalized mouse podocyte cell lines. Exp Cell Res 236, 248-258, (1997) and Schwartz, E. J. et al. Human immunodeficiency virus-1 induces loss of contact inhibition in podocytes. J Am Soc Nephrol 12, 1677-1684, (2001)). […] After incubation, cytotoxicity was analyzed using the Cell Titer-Blue Cell Viability Assay (Promega) per manufacturer's instructions. […] Fluorescence was read at 79 560Ex/590Em on a Gemini SpectramaxXS (Molecular Devices) plate reader. […]

Structure (SMILES) | mean E50 (concentration where 50% of the exposed podocytes remained viable) [nM]
CC(/C=C/C(=O)NO)=C\[C@@H](C)C(=O)c1ccc(N(C)C)cc1 [TSA, trichostatin A, reference compound] | 96
CCC(=O)CCCCC[C@@H]1NC(=O)[C@H]2CCCCN2C(=O)[C@H]([C@@H](C)CC)NC(=O)[C@H](Cc2cn(OC)c3ccccc23)NC1=O [apicidin, reference compound] | 152

Source: patent US10160705B2, “Class of HDAC inhibitors expands the renal progenitor cells population and improves the rate of recovery from acute kidney injury” (University of Pittsburgh—Of the Commonwealth System of …, priority 2011, dated 2018)
